Assay results from the supplement of paper PMC11417369.
± gives the standard deviation of the averaged measurements. Some of the results follow.

The sequences below were run on PfAP2-I AP2 domain 3 (GST-tagged) (assay: gcPBM binding intensity (ln(normalized median fluorescence intensity)); higher = stronger DNA binding).
Procedure, shortened: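 After 1 h on an Agilent 4 × 180k array of primer-extended double-stranded 36-bp intergenic genomic probes and negative controls, bound GST-tagged P. falciparum DNA-binding domains were detected with Alexa488 anti-GST antibody and scanned at 488 nm. The domains had been expressed in E. coli, and binding took place in 1× PBS with 1% milk, 0.2 mg/ml BSA, 0.5% salmon testes DNA and 0.03% Triton X-100. Binding intensity is the highest Masliner-normalised natural-log median intensity across replicate spots of either probe orientation.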

Sequence | gcPBM binding intensity (ln)
GTAAATTATATAACAAATAAAAATGTACATATATAT [CACACA_negctrl_site408] | 8.08 ± 0.62
ATATATATAGATTGTACACACATTTATGCATATATA [CACACA_site3222] | 8.55 ± 0.53
ACGCAATATTAACAAGTGCATTATAACACATAACAT | 11.3 ± 0.61
ATAACATTCTATGTTGCACACAAAGAGAAAAATTTA [CACACA_site9322] | 8.94 ± 0.12
ATATATATATATTATACACACAAAAATATTTTGTAT [CACACA_site266] | 9.14 ± 0.33
ATCTATGTTCCTTTTACACACATAATCTTTTTTTTA [CACACA_site5468] | 8.29 ± 0.69
CGTGGGAGCAGACACACACACACACGCATATTTATA [CACACA_site6290] | 7.71 ± 0.48
ATGGACAAAAAATATATACACACGAGGAAACCAACA [CACACA_site3726] | 8.11 ± 0.87
CATGCATACTACATCTGTACACATACATTATATTTA [XGTACX_site2495] | 8.16 ± 0.39
TTTTGTTTTTACGAATACTTTTTTAATTTTATTTAT [TGCATGCA_negctrl_site395] | 7.5 ± 0.56
ATAGTTATTTTATAGCGTACACAATAAATATATAAA [XGTACX_site4445] | 8.1 ± 0.34
CACAGAAATAGAGATACACACACACCGATATTTATG [CACACA_site9313] | 7.96 ± 0.48
GTCATATATTATAATAGTACATAAATAATTGATGCC [XGTACX_site3567] | 7.89 ± 0.35
AAATTTTCTTTTAAGTGTACGAAATTTAGTATTTCA [XGTACX_site7819] | 7.81 ± 0.45
TAAACAGTATGCAACGCATGCGTTGTTATATATAAA [TGCATGCA_site232] | 8.03 ± 0.83
ATGTATTTATTATTTAGTACACATTATTTTCTTATA [XGTACX_site6365] | 8.07 ± 0.33
TTTTTGTTTGTTCACGACTACATTATGTCATAAATG [CACACA_negctrl_site597] | 7.75 ± 0.61
TATATATAAATATATACACACATGAAAATAAATAAA [CACACA_site2514] | 7.67 ± 0.45
ATTTTTTTTTTTTTTTTTTTATTCTTAATTCATATA [CACACA_negctrl_site342] | 7.66 ± 0.42
AGTAGATATAATTATAGTACTTTGATGTTTTCTTTA [XGTACX_site5038] | 7.5 ± 0.35
ATATGATAAATTATATGTACTTAAAATATATTATAA [XGTACX_site5904] | 7.72 ± 0.3
TGGCAAAATAGGCACACACACATATACATCTATATT [CACACA_site6626] | 8.25 ± 0.4

Sequence | gcPBM binding intensity (ln)
TTTTTTTTTAGAAAAACATGCATGTCCTAAAAATAA [TGCATGCA_site684] | 7.8 ± 0.49
AAAAAAAAAAAAAAAAAAAAAAAAACAATGAATTTA [GTGCAC_negctrl_site698] | 9.88 ± 0.014
AGATATTAAAACGTTACACACATTTATATATCTTCT [CACACA_site908] | 7.59 ± 0.7
TTCCAAAATTGCATTTGTACCCAAAAAATGTATACG [XGTACX_site7680] | 7.8 ± 0.47
GTAAGTTTGAATACACGTACAAATTTATTAAAGTCC [XGTACX_site6722] | 7.89 ± 0.44
ATATTATTAATTTATAGTACTCATTTTTTTTTTTTT [XGTACX_site3536] | 7.69 ± 0.55
ATCAGTCGGCAGGACAGTACACAGTAGCCAGGAAAT [XGTACX_site2003] | 7.82 ± 0.72
GCTTTTTATTTTTACCGTACATTATATATGTATATA [XGTACX_site808] | 8.5 ± 0.75
AACGCGAACAATTTATAGATAACTTTTAATTATTAT [GTGCAC_negctrl_site179] | 7.25 ± 0.64
ATATATATATTTGTGTGTACATATTAATTTGTATGA [XGTACX_site4047] | 8.93 ± 0.11
ATGGTATATCCAAATAAACACACGTAAATACATAAA [CACACA_site1682] | 7.79 ± 0.54
ATACATTTTTGTAAAAGTACATATACATGCCCCCTT [XGTACX_site1367] | 9.145 ± 0.049
AATATATATATAGGATGTACACATAATTCAAATACA [XGTACX_site6368] | 8.02 ± 0.41
TATATATATATAAACTGTACTATTTTATGTTAAAAG [XGTACX_site3630] | 9.36 ± 0.21
ATTTAATACAAATACACACACAAATATATACATATA [CACACA_site3747] | 7.82 ± 0.43
TTTAGCCAATTTTTAAAGTTTAAAAAAGAAAAAAGA [CACACA_negctrl_site118] | 7.47 ± 0.57
TATTAAAAATACATATGTACTCATAGCATAAAACAT [XGTACX_site8686] | 7.96 ± 0.42
TTTTGGCTGATCAGATTTAACAAAAAAAAAAAAAAA [CACACA_negctrl_site671] | 8.03 ± 0.79
CAAATGTAGAAAATGTGTACATAAAAAAAAAAAAAA [XGTACX_site8276] | 8.22 ± 0.13
AGTCAATTTTGTGTGTCAACATTTATATAAAGAATG [TGCATGCA_negctrl_site400] | 7.96 ± 0.26
TGTGAAAATTATGGGGCATGCAATACTTTAAAAATA [TGCATGCA_site653] | 7.98 ± 0.72
CAAATATATATTTTCTGTACAAATACAATTAATACT [XGTACX_site2694] | 7.8 ± 0.3

Sequence | gcPBM binding intensity (ln)
CCTTCAATTTACATAACACACATTTAACCATAATAA [CACACA_site2394] | 8.17 ± 0.34
ACTAATTACTATAAAACACACATATATATATATATA [CACACA_site2591] | 9.63 ± 0.49
TTAGTCGAATGATGTACACACATACAAAACATTTAT [CACACA_site6076] | 7.93 ± 0.43
AAAAAAAAAAAAAAAAAAAAAAAAAAAAGAAAAAAG [GTGCAC_negctrl_site583] | 9.93 ± 0.099
AGAAAATATTTTGGTTGTACAGGCGATTTATATGTT [XGTACX_site7253] | 8.06 ± 0.69
TTATATTTTCAGAATAGTACACATATATACATATAT [XGTACX_site2519] | 7.82 ± 0.38
AAAAATTCTTGGCGCACACACTTTAAAAATTAAAAA [CACACA_site4498] | 8.7 ± 0.17
TTATAAAAGAAAAAAAAAAAAAAAAAAAAAAAAAAA [CACACA_negctrl_site1006] | 8.22 ± 0.86
GATCATTTAAAATAAGTAATATTTTTTTTACTTTTG [TGCATGCA_negctrl_site602] | 7.25 ± 0.6
CATATATGTTATATTTAACACACATATAAGGTACAT [CACACA_site8105] | 7.8 ± 0.42
TTTATAATTTATATCACACATATATCTGTAATAAAT [CACACA_site5048] | 7.55 ± 0.51
ATCTCTGTAAAGATCACACATATATTTTTGTTATAT [CACACA_site5094] | 7.71 ± 0.57
TATATATTATATATATGTACATATTGTTGTGTATAT [XGTACX_site767] | 7.92 ± 0.43
TTATTACACACATATGTGCACATATAAAAGTACACG [GTGCAC_site9581] | 9.965 ± 0.007
CAGCTCTTAAAAATTACACACATATACACATATATA [CACACA_site9073] | 7.5 ± 0.54
TATATATATATATATACACACATTTTTAATGATAAA [CACACA_site2695] | 9.34 ± 0.33
TATAAATACAATTCACAAGAGATCATGTATCAAACC [CACACA_negctrl_site1219] | 7.53 ± 0.61
TTTCTAGTTACAAGAGTGCATAATATATAAAAATAA [GTGCAC_site9874] | 10.9 ± 0.56
ATATAATAAATATGTTGTACTATAAAAAATAGCCAT [XGTACX_site4710] | 7.76 ± 0.34
TATTTTTAACAGTGCACACATAACTTAATTATATGT [CACACA_site2194] | 10.5 ± 0.23
GAAAGAAAATATTAAGTGCATATTTTAATGATACAA [GTGCAC_site9712] | 9.02 ± 0.2
ATAAAAATAAAAAAAACACACATACCTTATTTTTGT [CACACA_site5452] | 7.8 ± 0.57

Sequence | gcPBM binding intensity (ln)
GTGCATAAATCATACACACACACATATATATATATA [CACACA_site2423] | 10.4 ± 0.67
AAATATAAATGGTAATACACATACACACACACATAC [XGTACX_negctrl_site459] | 8.43 ± 0.16
TATAAAAAATTATGTTGTACGTAATATAAAATTTGT [XGTACX_site7122] | 8.09 ± 0.34
AATCAAAATAAATTAACACACAATTTTAATATTGTT [CACACA_site10] | 7.58 ± 0.47
ATTTTCCATATATTTTGTACATATGTATATTTTCCC [XGTACX_site7795] | 8.18 ± 0.84
TATAAATAAAGACACACACACACACCGTATAATTAC [CACACA_site7829] | 8.01 ± 0.4
TAATAAAACATATATACACACATTAGATATACATAT [CACACA_site6897] | 7.64 ± 0.37
TTCCCAACATGATATTGTACATTTAATTATAATTAA [XGTACX_site7029] | 8.18 ± 0.43
TATATCTCTTTATTCACACATACGTTTTAAAATAAT [CACACA_site5542] | 8.08 ± 0.42
CCAGGAAAAATTTATTGTACATATATTTTTATGCTC [XGTACX_site7154] | 7.68 ± 0.53
TATATTAAAAAAAAATGTACACATATATATATATAT [XGTACX_site4524] | 9.44 ± 0.26
ATATTATTAATTTGTTGTACAGTTCTTTATTTATAG [XGTACX_site7932] | 7.92 ± 0.57
TATATGTTTGAATATACACACAACATATATATATAT [CACACA_site4066] | 9.3 ± 0.63
TATTTTTGGTTATGTGTGCACTATGAACAACAAAAT | 11.4 ± 0.26
GACACCTGCATGAAAGTGCAAAATAGAAAAGGAACA [GTGCAC_site9593] | 10.6 ± 0.27
TTACCTCTTTGAAATATACACACTAAACATATCAAC [CACACA_site2455] | 8.06 ± 0.38
AAGGAATAATAATAAATGTAAAGAAAAGCATACTGA [CACACA_negctrl_site36] | 7.58 ± 0.78
AAATACCTTATATATACACACTATGTTTTTCTTTTT [CACACA_site4792] | 7.89 ± 0.75
AACACGCACAGACACACACACAAAAATGATTAAAAA [CACACA_site7195] | 8.29 ± 0.15
TTTATGAGGTTACTATGTACGCAAATTATGTAATAA [XGTACX_site325] | 8.19 ± 0.13
ATTTGTGTTATTCGAAGTACGGATCATTTGAAATAA [XGTACX_site2510] | 7.78 ± 0.41
AAAAGAAGAAACAAAACACACACAGTCTTCTTTTCT [CACACA_site9015] | 7.67 ± 0.95
